Publication PMC4344513
Numbering of substitutions follows the chain as printed. These are yes or no findings as the source states them, for the method shown. Binding seen in cells or lysates may run through a third protein. Some results given as binding are weak or reduced against the parent protein; the word gives no strength. Sequences can lack the tags named with a protein.

Sequences of proteins named here, by UniProt entry; tags and fusion partners are left off.
UniProt P49005: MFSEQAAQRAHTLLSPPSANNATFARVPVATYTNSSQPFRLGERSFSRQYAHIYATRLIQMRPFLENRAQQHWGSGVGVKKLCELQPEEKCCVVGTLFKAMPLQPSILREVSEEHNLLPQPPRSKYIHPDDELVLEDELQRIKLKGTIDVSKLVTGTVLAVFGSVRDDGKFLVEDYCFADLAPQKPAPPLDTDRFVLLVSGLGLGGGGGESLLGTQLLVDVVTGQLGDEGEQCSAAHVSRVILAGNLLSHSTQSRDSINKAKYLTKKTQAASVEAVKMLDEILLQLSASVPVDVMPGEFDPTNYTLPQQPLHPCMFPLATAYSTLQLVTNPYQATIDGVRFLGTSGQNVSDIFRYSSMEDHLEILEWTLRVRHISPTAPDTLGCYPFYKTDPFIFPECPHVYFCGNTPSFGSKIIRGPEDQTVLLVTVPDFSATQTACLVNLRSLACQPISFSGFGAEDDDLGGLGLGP

Key:
[1] = target: T1, His-GST-Polη_(393–511)(F1*) (human) (UniProt Q9Y253); experiment: pull-down; His-GST fusions (125 μg) immobilised on Dynabeads His-Tag, mixed with 35 μl POLD2 TnT reaction in 0.75x Buffer 1 (3.25-mM NaPO4 pH 7.4, 70-mM NaCl, 0.01% Tween20), 1.5 h, 4°C; only the target purified
T1 sequence: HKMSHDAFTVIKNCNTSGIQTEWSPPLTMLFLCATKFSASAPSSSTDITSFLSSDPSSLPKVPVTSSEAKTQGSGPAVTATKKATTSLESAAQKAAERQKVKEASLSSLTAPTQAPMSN

[2] = target: T2, His-GST-Polη_(393–511) (human) (UniProt Q9Y253); experiment: as above
T2 sequence: T1 sequence with A91F, A92F

in vitro translated POLD2 (from UniProt P49005 1-469)
binding [1]: no binding
binding [2]: binds
